Substitutions are numbered along the chain they refer to. No constants are given. Whether binding was seen depends on the method and setting. For some assays here: Binding seen in cells or lysates may run through a third protein. Some results given as binding are weak or reduced against the parent protein; the word gives no strength. For some assays here: Sequences can lack the tags named with a protein. One block for each molecule: values may come before it.
Tests used:
[1] = target: T1, Dvl1 full length fused to the GAL4 DNA-BD (yeast two-hybrid bait) (UniProt P51141); experiment: two-hybrid; Dvl1 fused to the GAL4 DNA-BD (pGBKT7, AH109) as bait, SNARE proteins fused to the GAL4 AD (pGADT7, Y187) as prey; mating; growth on media lacking Histidine or Histidine and Adenine
T1 sequence: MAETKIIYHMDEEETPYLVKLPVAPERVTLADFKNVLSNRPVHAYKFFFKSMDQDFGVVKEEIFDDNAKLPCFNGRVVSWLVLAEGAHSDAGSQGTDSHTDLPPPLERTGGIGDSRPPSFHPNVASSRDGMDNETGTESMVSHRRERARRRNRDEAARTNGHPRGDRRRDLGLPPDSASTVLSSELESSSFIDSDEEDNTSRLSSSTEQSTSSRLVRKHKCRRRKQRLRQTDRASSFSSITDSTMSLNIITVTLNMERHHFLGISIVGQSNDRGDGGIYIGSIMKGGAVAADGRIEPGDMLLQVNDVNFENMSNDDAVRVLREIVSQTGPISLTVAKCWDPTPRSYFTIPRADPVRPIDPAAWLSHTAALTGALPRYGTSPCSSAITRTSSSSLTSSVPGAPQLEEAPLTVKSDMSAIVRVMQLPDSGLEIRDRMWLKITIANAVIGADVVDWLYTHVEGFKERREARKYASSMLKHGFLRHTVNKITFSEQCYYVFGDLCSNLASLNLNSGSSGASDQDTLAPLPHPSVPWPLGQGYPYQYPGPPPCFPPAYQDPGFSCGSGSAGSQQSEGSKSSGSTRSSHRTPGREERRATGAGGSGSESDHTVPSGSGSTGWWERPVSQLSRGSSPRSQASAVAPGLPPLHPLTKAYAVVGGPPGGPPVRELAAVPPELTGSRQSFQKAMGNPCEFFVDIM

Amino acid sequences for entries named in this document (tags omitted).
UniProt P46096: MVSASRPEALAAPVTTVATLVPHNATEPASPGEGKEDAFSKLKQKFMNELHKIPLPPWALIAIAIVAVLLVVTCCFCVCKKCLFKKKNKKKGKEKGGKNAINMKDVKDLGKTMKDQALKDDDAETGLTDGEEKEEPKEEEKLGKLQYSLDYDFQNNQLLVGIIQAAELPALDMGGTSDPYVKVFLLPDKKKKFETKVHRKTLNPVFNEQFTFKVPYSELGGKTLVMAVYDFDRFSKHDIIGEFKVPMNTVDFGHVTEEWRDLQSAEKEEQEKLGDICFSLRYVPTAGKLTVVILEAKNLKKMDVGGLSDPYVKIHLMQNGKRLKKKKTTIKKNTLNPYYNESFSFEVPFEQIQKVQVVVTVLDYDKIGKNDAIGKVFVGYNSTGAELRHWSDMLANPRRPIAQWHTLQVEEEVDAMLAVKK
UniProt P60879: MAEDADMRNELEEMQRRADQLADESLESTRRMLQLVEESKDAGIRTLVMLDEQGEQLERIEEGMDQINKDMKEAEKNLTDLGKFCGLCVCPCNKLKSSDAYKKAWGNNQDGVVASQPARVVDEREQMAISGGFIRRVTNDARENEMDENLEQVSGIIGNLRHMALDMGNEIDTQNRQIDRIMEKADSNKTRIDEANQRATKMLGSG
UniProt P63045: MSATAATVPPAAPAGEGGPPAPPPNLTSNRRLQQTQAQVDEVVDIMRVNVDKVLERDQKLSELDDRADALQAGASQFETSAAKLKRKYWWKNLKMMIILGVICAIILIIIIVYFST
UniProt P63044: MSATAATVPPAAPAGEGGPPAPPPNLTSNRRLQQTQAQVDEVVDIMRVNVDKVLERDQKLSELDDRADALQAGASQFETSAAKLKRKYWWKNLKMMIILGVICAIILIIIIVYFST
UniProt P21707: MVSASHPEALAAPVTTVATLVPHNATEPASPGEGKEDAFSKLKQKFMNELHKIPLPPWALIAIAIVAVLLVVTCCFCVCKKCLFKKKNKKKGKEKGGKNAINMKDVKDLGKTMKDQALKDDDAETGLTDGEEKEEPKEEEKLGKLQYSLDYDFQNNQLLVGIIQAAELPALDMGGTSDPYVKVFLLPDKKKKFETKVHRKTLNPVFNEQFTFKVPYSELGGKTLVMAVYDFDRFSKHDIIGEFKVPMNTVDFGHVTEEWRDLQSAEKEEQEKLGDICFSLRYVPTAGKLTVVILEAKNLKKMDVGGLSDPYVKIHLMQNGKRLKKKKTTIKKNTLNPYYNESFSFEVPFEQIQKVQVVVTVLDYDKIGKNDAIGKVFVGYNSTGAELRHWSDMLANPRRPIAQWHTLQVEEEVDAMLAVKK

[2] = target: T2, Dishevelled-1 (Dvl1), endogenous in mature rat hippocampal neurons (rat (endogenous in hippocampal neurons)) (UniProt Q9WVB9); experiment: co-IP; endogenous proteins; mature high-density hippocampal cultures lysed in Triton buffer (50 mM Hepes-NaOH, 0.1 M NaCl, 4 mM EGTA, 2 mM MgCl2, 0.5% Triton X-100); Dvl1 monoclonal antibody and protein G-Sepharose overnight at 4 °C; western blot; also after treatment of the neurons with Wnt7a (more Syt-1 with Dvl1) or Sfrps (less)
T2 sequence: T1 sequence with D170E, V216I, C560Y

[3] = target: T3, Dishevelled-1 (Dvl1), endogenous in adult mouse brain synaptosomes (mouse (endogenous in adult brain)) (UniProt P51141); experiment: co-IP; endogenous proteins; synaptosomal fraction prepared from adult mouse brain homogenate; western blot
T3 sequence: T1 sequence

full-length Dvl1-Flag = target: T4, full-length Dvl1-Flag (UniProt P51141); experiment: co-IP; HEK-293 cells transfected with Dvl1-Flag and Syt-1-T7, with or without Dvl1-BD-HA; T7 and Flag antibodies; which protein was precipitated not given
T4 sequence: T1 sequence

Syt-1-T7 = Syt-1-T7 (UniProt P46096); experiment: as above

Molecule: SNAP25 full length fused to the GAL4 activation domain (yeast two-hybrid prey) (from UniProt P60879 1-206)
binding [1]: no binding

Molecule: Synaptobrevin/VAMP2, endogenous in mature rat hippocampal neurons (from UniProt P63045 1-116)
binding [2]: no binding

Molecule: Synaptotagmin-1 (Syt-1), endogenous in adult mouse brain synaptosomes (from UniProt P46096 1-421)
binding [3]: binds

Molecule: Syt-1 full length fused to the GAL4 activation domain (yeast two-hybrid prey) (from UniProt P46096 1-421)
binding [1]: binds

Molecule: VAMP2 full length fused to the GAL4 activation domain (yeast two-hybrid prey) (from UniProt P63044 1-116)
binding [1]: no binding

B1: Dvl1-BD (amino acids 141-227 of Dvl1 fused to HA) (domain or fragment, UniProt P51141 141-227)
chain: VSHRRERARRRNRDEAARTNGHPRGDRRRDLGLPPDSASTVLSSELESSSFIDSDEEDNTSRLSSSTEQSTSSRLVRKHKCRRRKQR
binding (Syt-1-T7): binds

More lines, now with the values ahead:

binding [2]: binds
Molecule: Synaptotagmin-1 (Syt-1), endogenous in mature rat hippocampal neurons (from UniProt P21707 1-421)

binding (full-length Dvl1-Flag): binds
Molecule: Syt-1-T7 (from UniProt P46096 1-421)
